# Measurements from PMC4336329 (PLoS ONE, 2015).
# Screen size: about 310,000 compounds; about 2,200 (0.71%) showed an effect of 50% or more. Effects have a minus sign here. Some of the results follow.
# Target: human ether-à-go-go-related gene (hERG) potassium channel (human, UniProt Q12809)
# Assay: primary screen, population patch clamp on CHO cells stably expressing hERG
# Sequence of human ether-à-go-go-related gene (hERG) potassium channel (Q12809 whole entry, looked up): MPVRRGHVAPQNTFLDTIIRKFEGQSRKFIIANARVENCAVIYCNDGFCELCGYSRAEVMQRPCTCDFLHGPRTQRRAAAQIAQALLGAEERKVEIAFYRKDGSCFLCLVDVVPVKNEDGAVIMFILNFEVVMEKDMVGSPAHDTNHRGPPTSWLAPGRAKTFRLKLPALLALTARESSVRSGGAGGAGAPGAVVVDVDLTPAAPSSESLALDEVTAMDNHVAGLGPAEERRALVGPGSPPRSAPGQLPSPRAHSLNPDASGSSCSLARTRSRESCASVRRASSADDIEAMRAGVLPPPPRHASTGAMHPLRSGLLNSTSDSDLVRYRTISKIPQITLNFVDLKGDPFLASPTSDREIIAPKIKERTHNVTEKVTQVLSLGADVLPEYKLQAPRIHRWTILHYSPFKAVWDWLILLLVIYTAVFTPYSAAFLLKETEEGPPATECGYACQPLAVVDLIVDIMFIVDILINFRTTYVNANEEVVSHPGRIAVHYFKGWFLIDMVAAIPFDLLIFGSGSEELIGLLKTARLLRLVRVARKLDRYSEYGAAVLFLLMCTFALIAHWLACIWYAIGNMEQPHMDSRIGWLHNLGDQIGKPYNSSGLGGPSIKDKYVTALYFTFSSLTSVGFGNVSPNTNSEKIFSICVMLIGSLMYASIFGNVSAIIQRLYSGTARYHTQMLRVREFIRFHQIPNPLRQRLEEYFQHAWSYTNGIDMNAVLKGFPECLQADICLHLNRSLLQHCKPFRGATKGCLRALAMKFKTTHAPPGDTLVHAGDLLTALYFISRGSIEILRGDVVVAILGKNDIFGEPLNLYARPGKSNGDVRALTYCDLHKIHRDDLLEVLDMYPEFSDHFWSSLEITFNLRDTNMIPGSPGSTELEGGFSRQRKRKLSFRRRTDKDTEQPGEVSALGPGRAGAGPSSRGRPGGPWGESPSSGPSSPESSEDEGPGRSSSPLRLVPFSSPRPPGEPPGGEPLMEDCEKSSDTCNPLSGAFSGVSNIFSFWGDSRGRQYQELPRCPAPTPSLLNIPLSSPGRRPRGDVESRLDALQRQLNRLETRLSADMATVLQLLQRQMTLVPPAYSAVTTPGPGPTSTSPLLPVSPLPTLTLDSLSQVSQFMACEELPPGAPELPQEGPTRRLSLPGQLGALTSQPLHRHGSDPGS
row,Compound,"hERG current change (%, negative = inhibition) at 1uM [%]"
1,COc1ccc(NC(=O)C2CCCN(S(=O)(=O)c3cccc4cccnc34)C2)c(OC)c1 (stereo not shown),8.76
2,CCOc1ccc(Br)cc1/C=N/NC(=O)c1ccncc1,-9.04
3,CCOC(=O)C1CCCN(C(=O)Cn2cnc3c2c(=O)n(C)c(=O)n3C)C1 (stereo not shown),18.7
4,O=C(Nc1ccc(C(F)(F)F)cc1)C1CCCN1S(=O)(=O)c1cccc2cccnc12 (stereo not shown),-23.4
5,COc1ccccc1CCc1nnc(CCC(=O)N(C)Cc2cccc3ncccc23)o1,-1.35
6,Cc1cccn2c(=O)nc(SCC(=O)Nc3ccc4c(c3)OCO4)nc12,0.76
7,CC(c1ccccc1)C1C(C#N)=C(N)SC(N)=C1C#N (stereo not shown),-11.3
8,O=C(NC1CCN(CC(=O)N(c2ccccc2)c2ccccc2)CC1)c1ccc([N+](=O)[O-])cc1,-78.6
9,CC(C)Oc1cccc(C(=O)N/N=C/c2ccoc2)c1,12.8
10,CC(=O)c1ccc(NC(=O)Nc2ccc(Br)cc2C)cc1,7.32
11,COc1ccc(NC(=O)NCCN2CCCCC2)cc1,7.19
12,O=C(CSc1ncnc2sc3c(c12)CCCC3)c1ccccc1,9.22
13,Cc1cccc(NC(=S)N(CCN2CCOCC2)Cc2ccccc2F)c1,3.83
14,COC(=O)c1sc(S(=O)(=O)NCc2ccccc2)c(C(=O)OC)c1C,-5.58
15,O=C(NCc1ccccc1)c1ccc(Br)o1,12.4
16,Cc1oc2c(c1C(=O)NCCO)CCCC2,14
17,CN(Cc1cccnc1)C(=O)Cc1ccc(NS(=O)(=O)c2cccc(C(F)(F)F)c2)cc1,-4.5
18,CCn1ccc(C(=O)NCc2ccc3c(c2)OCO3)n1,9.9
19,COCCNC(=O)COC(=O)C1=Cc2ccccc2OC1,13.7
20,Nc1cc(CN2C(=O)c3ccccc3C2=O)cc(Cl)c1O,3.7
21,COc1cc(OC)c(C2=NOC(C(=O)NCc3ccc4c(c3)OCO4)C2)cc1Cl (stereo not shown),12.5
22,O=C(C(=O)N1CCCCC1)c1c(-c2ccccc2)[nH]c2ccccc12,9.47

row,Compound,"hERG current change (%, negative = inhibition) at 1uM [%]"
1,Cc1ccc(Oc2nnc(-c3ccccc3)c3ccccc23)cc1,-3.06
2,Nn1c(SCc2cn3cc(Cl)ccc3n2)nnc1-c1ccncc1,4.79
3,COC(=O)c1cc2c(ccn2-c2ccc(F)cc2)n1CC(=O)N1CCN(C(=O)c2ccco2)CC1,-46.1
4,O=C1CC2c3ccccc3C1C1C(=O)N(Cc3ccccc3)C(=O)C21 (stereo not shown),8.84
5,O=C(c1cccc([N+](=O)[O-])c1)c1ccc2c(c1)OCCOCCOCCOCCO2,-32.6
6,CCOc1ccc(-c2nnc3sc(COc4ccc(C)cc4)nn23)cc1,12.2
7,CCc1ccc(S(=O)(=O)NCCc2cn3cccc(C)c3n2)s1,1.83
8,CN(CCc1cn[nH]c1)Cc1nc(Cc2ccccc2F)no1,13.5
9,COc1ccc(Oc2c(Cl)cnn(-c3ccc(F)cc3)c2=O)cc1,1.94
10,Cc1cccc(NC(=O)CC2(CC(=O)O)CCCC2)c1,21.6
11,CCCCC(=O)Nc1ccc(C(=O)NNC(=O)CCc2ccccc2)cc1,15.2
12,COc1ccc(CCNC(=O)CSc2nnc3ccc(-c4ccccn4)nn23)cc1,-18.4
13,CN(CC(=O)Nc1ccccc1C(F)(F)F)C(=O)CCc1nc2sc3c(c2c(=O)[nH]1)CCCC3,15.9
14,O=C(COC(=O)CCN1C(=O)/C(=C\C=C\c2ccccc2)SC1=S)Nc1ccc(Br)cc1,3.88
15,CCCCNc1nc2ccccc2n1CC(=O)Nc1ccc2c(c1)OCCO2,-2.26
16,Cc1cccc(CCNS(=O)(=O)c2ccc(S(=O)(=O)N3CCC(C)CC3)cc2)c1,1.88
17,O=[N+]([O-])c1cccc(-c2n[nH]c(=S)n2-c2ccc(Br)cc2)c1,9.45
18,CC1CCCC(NC(=O)c2ccc3c(SCC(=O)O)c4c(nc3c2)CCC4)C1C (stereo not shown),14.2
19,COc1ccc(/C=C2/SC(=S)N(CCCC(=O)Nc3ccc(O)cc3)C2=O)cc1OC,1.83
20,O=C1NC(=S)N/C1=C\c1cccnc1,10.8
21,COc1ccc(C2(O)C(=O)Nc3ccc(C)cc32)cc1 (stereo not shown),13.4
